Some of the results follow. The list includes weakly bound sequences.
These sequences were tested against T1, MBP-FoxP3dN (UniProt Q99JB6) (assay: PD-seq (MBP pull-down with sequencing)). Conditions: 20 mM Tris-HCl pH 7.5, 100 mM NaCl, 1.5 mM MgCl2, 0.4 uM protein, 0.1 uM dsDNA library, 30 min, room temperature, amylose pull-down; high values mean tight binding; double strand, one strand shown.
T1 sequence: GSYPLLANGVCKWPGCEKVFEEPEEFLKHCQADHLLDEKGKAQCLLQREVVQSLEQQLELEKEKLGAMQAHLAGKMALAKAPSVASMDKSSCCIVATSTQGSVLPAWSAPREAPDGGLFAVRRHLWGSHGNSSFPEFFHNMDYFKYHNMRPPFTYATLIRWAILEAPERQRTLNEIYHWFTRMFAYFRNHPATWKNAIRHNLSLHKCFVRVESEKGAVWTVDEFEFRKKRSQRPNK

| Sequence | binding signal (RPM ratio (pull-down/input)) |
| --- | --- |
| GATGATTGTTCTCCCAGCTGATGAATTACTGACCTCGAGTAAACAAATTTTCCTAATCTTTCTGTTCAAGCGCCATCTAC | 0.285 |
| GATGATTGTTCTCCCAGCTGATGAATTGCTCGCTTCGAGTAAACAAATTTTCCTAATCTTTCTGTTCAAGCGCCATCTAC | 0.6 |
| GATGATTGTTCTCCCAGCTGATGAATTGCAGAAGTCGAGTAAACAAATTTTCCTAATCTTTCTGTTCAAGCGCCATCTAC | 0.394 |
| GATGATTGTTCTCCCAGCTGATGAATTTACCACGTCGAGTAAACAAATTTTCCTAATCTTTCTGTTCAAGCGCCATCTAC | 0.499 |
| GATGATTGTTCTCCCAGCTGATGAATTAATGCTTTCGAGTAAACAAATTTTCCTAATCTTTCTGTTCAAGCGCCATCTAC | 1.78 |
| GATGATTGTTCTCCCAGCTGATGAATTAGAATCCTCGAGTAAACAAATTTTCCTAATCTTTCTGTTCAAGCGCCATCTAC | 0.465 |
| GATGATTGTTCTCCCAGCTGATGAATTTTGCGCTTCGAGTAAACAAATTTTCCTAATCTTTCTGTTCAAGCGCCATCTAC | 1.78 |
| GATGATTGTTCTCCCAGCTGATGAATTTATCGGCTCGAGTAAACAAATTTTCCTAATCTTTCTGTTCAAGCGCCATCTAC | 0.629 |
| GATGATTGTTCTCCCAGCTGATGAATTGCCATGCTCGAGTAAACAAATTTTCCTAATCTTTCTGTTCAAGCGCCATCTAC | 1 |
| GATGATTGTTCTCCCAGCTGATGAATTGACGAACTCGAGTAAACAAATTTTCCTAATCTTTCTGTTCAAGCGCCATCTAC | 0.256 |
| GATGATTGTTCTCCCAGCTGATGAATTTATCACATCGAGTAAACAAATTTTCCTAATCTTTCTGTTCAAGCGCCATCTAC | 1.28 |
| GATGATTGTTCTCCCAGCTGATGAATTGAAACCTTCGAGTAAACAAATTTTCCTAATCTTTCTGTTCAAGCGCCATCTAC | 0.235 |
| GATGATTGTTCTCCCAGCTGATGAATTGAGTATGTCGAGTAAACAAATTTTCCTAATCTTTCTGTTCAAGCGCCATCTAC | 1.87 |
| GATGATTGTTCTCCCAGCTGATGAATTTTTGACTTCGAGTAAACAAATTTTCCTAATCTTTCTGTTCAAGCGCCATCTAC | 0.447 |
| GATGATTGTTCTCCCAGCTGATGAATTTCGGTTTTCGAGTAAACAAATTTTCCTAATCTTTCTGTTCAAGCGCCATCTAC | 0.714 |
| GATGATTGTTCTCCCAGCTGATGAATTGCGACGTTCGAGTAAACAAATTTTCCTAATCTTTCTGTTCAAGCGCCATCTAC | 0.926 |
| GATGATTGTTCTCCCAGCTGATGAATTTCTGACTTCGAGTAAACAAATTTTCCTAATCTTTCTGTTCAAGCGCCATCTAC | 0.39 |
| GATGATTGTTCTCCCAGCTGATGAATTGGACTGATCGAGTAAACAAATTTTCCTAATCTTTCTGTTCAAGCGCCATCTAC | 0.228 |
| GATGATTGTTCTCCCAGCTGATGAATTAACTACGTCGAGTAAACAAATTTTCCTAATCTTTCTGTTCAAGCGCCATCTAC | 0.298 |
| GATGATTGTTCTCCCAGCTGATGAATTTAGCAGCTCGAGTAAACAAATTTTCCTAATCTTTCTGTTCAAGCGCCATCTAC | 1.72 |

| Sequence | binding signal (RPM ratio (pull-down/input)) |
| --- | --- |
| GATGATTGTTCTCCCAGCTGATGAATTATGTTAGTCGAGTAAACAAATTTTCCTAATCTTTCTGTTCAAGCGCCATCTAC | 5.81 |
| GATGATTGTTCTCCCAGCTGATGAATTGGAACACTCGAGTAAACAAATTTTCCTAATCTTTCTGTTCAAGCGCCATCTAC | 0.486 |
| GATGATTGTTCTCCCAGCTGATGAATTTGCGCTCTCGAGTAAACAAATTTTCCTAATCTTTCTGTTCAAGCGCCATCTAC | 0.911 |
| GATGATTGTTCTCCCAGCTGATGAATTTGCGATATCGAGTAAACAAATTTTCCTAATCTTTCTGTTCAAGCGCCATCTAC | 1.04 |
| GATGATTGTTCTCCCAGCTGATGAATTCGATCTATCGAGTAAACAAATTTTCCTAATCTTTCTGTTCAAGCGCCATCTAC | 0.345 |
| GATGATTGTTCTCCCAGCTGATGAATTGGTTTACTCGAGTAAACAAATTTTCCTAATCTTTCTGTTCAAGCGCCATCTAC | 4.7 |
| GATGATTGTTCTCCCAGCTGATGAATTCTGGGAATCGAGTAAACAAATTTTCCTAATCTTTCTGTTCAAGCGCCATCTAC | 0.225 |
| GATGATTGTTCTCCCAGCTGATGAATTGCTTAGTTCGAGTAAACAAATTTTCCTAATCTTTCTGTTCAAGCGCCATCTAC | 0.943 |
| GATGATTGTTCTCCCAGCTGATGAATTCTACCGCTCGAGTAAACAAATTTTCCTAATCTTTCTGTTCAAGCGCCATCTAC | 0.281 |
| GATGATTGTTCTCCCAGCTGATGAATTGATTTAGTCGAGTAAACAAATTTTCCTAATCTTTCTGTTCAAGCGCCATCTAC | 1.58 |
| GATGATTGTTCTCCCAGCTGATGAATTGATCAGCTCGAGTAAACAAATTTTCCTAATCTTTCTGTTCAAGCGCCATCTAC | 0.287 |
| GATGATTGTTCTCCCAGCTGATGAATTTTCCGGTTCGAGTAAACAAATTTTCCTAATCTTTCTGTTCAAGCGCCATCTAC | 0.213 |
| GATGATTGTTCTCCCAGCTGATGAATTTAACTGATCGAGTAAACAAATTTTCCTAATCTTTCTGTTCAAGCGCCATCTAC | 0.308 |
| GATGATTGTTCTCCCAGCTGATGAATTGTTCGGCTCGAGTAAACAAATTTTCCTAATCTTTCTGTTCAAGCGCCATCTAC | 0.297 |
| GATGATTGTTCTCCCAGCTGATGAATTTGGGATTTCGAGTAAACAAATTTTCCTAATCTTTCTGTTCAAGCGCCATCTAC | 0.407 |
| GATGATTGTTCTCCCAGCTGATGAATTTCCCGGTTCGAGTAAACAAATTTTCCTAATCTTTCTGTTCAAGCGCCATCTAC | 0.209 |
| GATGATTGTTCTCCCAGCTGATGAATTGTCGATGTCGAGTAAACAAATTTTCCTAATCTTTCTGTTCAAGCGCCATCTAC | 0.48 |
| GATGATTGTTCTCCCAGCTGATGAATTGCTAATATCGAGTAAACAAATTTTCCTAATCTTTCTGTTCAAGCGCCATCTAC | 0.872 |
| GATGATTGTTCTCCCAGCTGATGAATTCCATAAATCGAGTAAACAAATTTTCCTAATCTTTCTGTTCAAGCGCCATCTAC | 0.233 |
| GATGATTGTTCTCCCAGCTGATGAATTGCCGCGTTCGAGTAAACAAATTTTCCTAATCTTTCTGTTCAAGCGCCATCTAC | 1.88 |
